Where “and” joins values, the source holds several entries; their conditions need not be identical. Identical values can stand only once. The campaign covered roughly 420,000 compounds. About 64,000 (15%) were called active. Inconclusive means that the source gave no clear call. Such entries were picked first, then a sample of the others. Calls come from the whole dose curve; as a rule, active = well fitted inhibition curve with a large enough effect; inconclusive = small, poorly fitted or top-dose-only effect; inactive = flat fitted curve, though single readings scatter. Potencies of inconclusive entries are left out as doubtful fits.
Test: qHTS for Inhibitors of human tyrosyl-DNA phosphodiesterase 1 (TDP1): qHTS in cells in absence of CPT; note: nearly all actives have a fitted effect of over 55% in size
Settings: DT40 Tdp1-/- hTDP1 cells, no CPT, ATP luminescence, 48 h; activity change, negative = growth inhibition: at 46.2 µM (top of the series) unless noted
How it was run: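 A cellular qHTS used chicken DT40 cells lacking endogenous Tdp1 but carrying stably transfected human TDP1. Compounds were applied without camptothecin, and cell growth kinetics were judged by ATP-dependent luminescence after ≥48 hr.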
% is set by controls: 0 for no effect and ±100 for the full control effect; potency is the fitted concentration of half-maximal effect; tags give direction and shape of the fitted curve.

Row | SMILES | Potency | activity change, negative = growth inhibition
1 | CCOc1ccc(NCc2cccn2-c2nnc(N3CCC(C(=O)NCC(C)c4ccccc4)CC3)s2)cc1 (stereo unspecified) | active: 8.2 µM | 
2 | CC(C)CC1C(=O)N(Cc2cn(CC3CCCCC3)nn2)CCS(=O)(=O)N1Cc1ccc(-c2ccc(F)nc2)cc1 (stereo unspecified) | active: 18.4 µM | 
3 | CCCCn1c(-c2nn(C)cc2Cl)n[nH]c1=S | inconclusive [inhibitor, partial curve, poor fit] | 
4 | COc1cccc(C2SCC(=O)Nc3c2c(C)nn3-c2ccc(C)c(Cl)c2)c1OC (stereo unspecified) | active: 20.6 µM | 
5 | N[C@H](CCCCCP(=O)(O)O)C(=O)O | inactive | 
6 | CN(C)C1(c2nnnn2CCOC(=O)Nc2ccc(Cl)cc2)CCCCC1 | active: 18.4 µM | 
7 | CCC(=O)c1ccc(OCC(=O)N2CCN(CC(=O)Nc3ccccc3C(F)(F)F)CC2)cc1 | active: 14.6 µM | 
8 | Cc1ccc2c(c1)CC1(CN2C)C(=O)NC(=O)N(CCC2=CCCCC2)C1=O (stereo unspecified) | inconclusive [inhibitor, partial curve] | 
9 | CCCNC(=O)N1[C@H]2CC[C@@H]1C(C(=O)OC)=C(c1ccc(C(C)=O)cc1)C2 | inactive | 
10 | COc1ccc(CC(=O)N(CCN(C)C)CC2CCCN(Cc3ccccc3F)C2)cc1 (stereo unspecified) | inconclusive [inhibitor, single point] | 
11 | O=C1CN=C(c2ccccc2)c2cc(Cl)ccc2N1CC1CC1 | active: 23.7 µM | 
12 | Cn1ncnc2c(=O)n(C)c(=O)nc1-2 | active: 0.291 µM | 
13 | COc1ccc(-n2nnnc2C(c2ccccc2)N2CCC(n3c(=O)[nH]c4ccccc43)CC2)cc1 (stereo unspecified) | active: 14.6 µM | 
14 | CC1(C)OC(c2ccccc2)=C/C(=C/C=C2C(=O)NC(=S)NC2=O)O1 | inconclusive [inhibitor, single point] | 
15 | O=C1C2CCCN2C(c2ccccc2)N1c1ccccn1 (stereo unspecified) | inactive | 
16 | CCOC(=O)[C@]12Cc3c(cc(OC)c(OC)c3OC)[C@H]1N(Cc1ccccc1)C(=O)c1ccccc12 | active: 17.8 µM and active: 16.4 µM | 

Row | SMILES | Potency | activity change, negative = growth inhibition
17 | O=C1C=C2C(=CCOC2O)O1 (stereo unspecified) | active: 0.146 µM | 
18 | O=c1c2ccccc2nc(SCC2CCCCO2)n1-c1ccccc1 (stereo unspecified) | inconclusive [inhibitor, single point] | 
19 | c1ccc(-c2nnc(SCc3nc4ccccc4[nH]3)o2)cc1 | inconclusive [inhibitor, single point] | 
20 | O=c1oc2ccccc2c(O)c1C(c1ccccc1O)c1c(O)c2ccccc2oc1=O |  | inactive: -17.6% [at 9.04 µM]
21 | CCN1CCN(Cc2cc(OC)c3c(c2)OCO3)CC1 | inactive | 
22 | O=C1NC(=O)N(CCc2ccc(F)cc2)C(=O)/C1=C/c1ccco1 | inconclusive [inhibitor, partial curve] | 
23 | C/C=C1/C[C@@H](C)[C@](O)(CO)C(=O)OCC2=CCN3CC[C@@H](OC1=O)C23 (stereo partly specified) | inconclusive [inhibitor, full curve] | 
24 | CCCCC(=O)N/N=C/c1c(O)n(C2CC2)c(=S)[nH]c1=O | inactive | 
25 | CC(C)(C)n1cc(C(=O)c2ccccc2)cc1-c1ccccc1 | inconclusive [inhibitor, partial curve, poor fit] | 
26 | C[C@H]1CCC[C@H](O)CCCCCc2cc(O)cc(O)c2C(=O)O1 | active: 18.4 µM | 
27 | NC(Cc1cc(O)c(O)cc1O)C(=O)O (stereo unspecified) | active: 6.31 µM | 
28 | O=c1oc2ccccc2n1CSC1=NCCS1 | inconclusive [inhibitor, single point] | 
29 | CCC(C)C(=O)OC1C2CC3=C4CC(=O)OC(c5ccoc5)[C@]4(C)CCC3[C@@](C)(C2=O)C(CC(=O)OC)C1(C)C (stereo partly specified) | inconclusive [inhibitor, single point] | 
30 | O=C(CN1CCCCC1)c1ccccc1 | inactive | 
31 | CC1CCN(C(=O)C(C)Cl)CC1 (stereo unspecified) | inactive | 

— PubChem BioAssay AID686978 (National Center for Advancing Translational Sciences (NCATS), 2013)
